These results are taken from PubChem BioAssay AID1347073 (National Center for Advancing Translational Sciences (NCATS), 2019).

Among all 45,000 compounds or so, about 200 (0.44%) were called active. Inconclusive results (about 7%) are left out. Calls follow the shape of the dose curve; as a rule, active = well fitted activation curve with a large enough effect; inconclusive = small, poorly fitted or top-dose-only effect; inactive = no such curve, though single readings can be large or run the other way. Some of the results follow.
Potency is read from the fitted curve at half-maximal effect.

The test is described as follows: qHTS of TDP-43 Inhibitors: NCGC Sytravon Library Screen. Also: nearly all actives have a fitted effect of over 55% in size. As to growth rescue (activation): 0% is about no effect. As to conditions: yeast TDP-43 toxicity rescue, BacTiter-Glo growth, 24 h; series mostly up to 46.1 µM; growth rescue (activation): at the top concentration. A digest of the protocol:
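TDP-43-expressing yeast, pregrown in raffinose, seeded at OD600 0.02 in galactose medium with compound for 24 hr at 30 deg C. Growth read by BacTiter-Glo luminescence, so rescue of toxicity appears as activation.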
For orientation: In qHTS, concentration-response curves come from the screen itself.
As to `CC1CC1C(=O)Nc1nc(-c2cccs2)c(-c2cccs2)s1` (stereo not drawn), the Potency is active: 11.2 µM.

On to `COc1ccc(C2CCCN2C(=S)Nc2cccc(C)c2C)cc1OC` (stereo not drawn), for which the “growth rescue (activation)” value is inactive: 13%. On the same count and under the same terms, for `CCC(CC)C(=O)N(C)c1c(C)nc2c(OCCC3CCCCC3)cccn12` the value was inactive: 14.9%; for `CC(=O)c1cccc(N(CC(=O)NC2CCCCC2)C(=O)CCC(=O)Nc2nc(C)cs2)c1`, inactive: -7.67%. The same measure, in the same setting: for `CC(C)(C)c1ccc(CCC(CC(=O)O)CC(=O)O)cc1` the value was inactive: 24.6%; for `Cc1nc2ccc(F)cc2cc1C(=O)Nc1cccc(Cl)c1C`, inactive: 0.867%. On the same count and under the same terms, for `CC(C)Cc1c(O)nc(SCC(=O)N2CCCCCC2)[nH]c1=O` the value was inactive: 8.91%; for `CN1CCCN(C(=O)CC2(CC(=O)O)CCCC2)CC1`, inactive: -12.2%; for `CN1CCOC(=O)/C1=N/Nc1cc(Cl)ccc1Cl`, inactive: 13.2%.

In the case of `Cc1cccc(-n2c(SCc3ccc([N+](=O)[O-])cc3)nnc2-c2c[nH]c3ccccc23)c1`, the “growth rescue (activation)” value was inactive: -1.51%.

Regarding `Cc1cc(C)c2nc(Cl)c(Cl)nc2c1`, the “growth rescue (activation)” value was inactive: 5.72%.

On to `CC(=O)NC(Nc1nc2c(s1)CCCC2)(C(F)(F)F)C(F)(F)F`, for which the “growth rescue (activation)” value was inactive: -8.56%. On the same count and under the same terms, for `O=C(COC(=O)Cn1c(C(F)(F)F)nc2ccccc21)Nc1ccc2c(c1)OCCO2` the value was inactive: 0.167%. The same measure, in the same setting: for `O=C(Nc1ccccc1Cl)c1ccc(COc2ccc3c(c2)CCC3)cc1` the value was inactive: 11.9%. The same measure, in the same setting: for `O=C(NCc1ccc2c(c1)OCO2)c1cccnc1` the value was inactive: 23.4%; for `COc1ccc(-c2cc(C(=O)N3CCCCCC3)no2)cc1`, inactive: 26.8%; for `O=S(=O)(NCc1ccc(Cl)cc1)NCc1ccccc1F`, inactive: 6.32%. Take `Cc1ccc2c(CN3CCN(S(=O)(=O)/C=C/c4ccccc4)CC3)cc(=O)oc2c1`: the “growth rescue (activation)” value was inactive: 18.1%. On the same count and under the same terms, as for `Cc1nc2cc(NS(=O)(=O)c3ccc(Br)cc3)ccc2n1C`, the figure is inactive: -5.4%; as for `CC(=O)c1cc2c(=O)c3cc(C)ccc3oc2nc1C`, inactive: -6.33%.

Regarding `NC(=O)c1nsc(C(=O)N(CC(=O)NC2CCCC2)Cc2ccc3c(c2)OCO3)c1N`, the “growth rescue (activation)” value was inactive: -17.7%. Turning to `CCC(C)NC(=O)c1cc(-c2cccs2)nc2ccccc12` (stereo not drawn), the “growth rescue (activation)” value is inactive: 4.85%. On the same count and under the same terms, for `NCC(O)CN1CCN(Cc2ccccc2)CC1` (stereo not drawn) the value was inactive: -13.9%.

Turning to `COc1ccc(NS(=O)(=O)c2ccc(N3CCOCC3)c(NC(=O)c3ccccc3Br)c2)cc1`, the “growth rescue (activation)” value is inactive: 21%. On the same count and under the same terms, as for `O=C(CCCCC(=O)NC1CCCC1)NC1CCCC1`, the figure is inactive: 18.7%; as for `C/C(=N\NC(=O)c1ccoc1C)c1ccccc1O`, inactive: 6.8%; as for `COc1ccccc1Cc1nnc(NC(=O)C2CCN(C(=O)c3ccco3)CC2)s1`, inactive: -2.21%. Still for that read-out and setting: as for `Cc1ccc(C(=O)Nc2ccccc2[N+](=O)[O-])cc1S(=O)(=O)N1CCOCC1`, the figure is inactive: 22.1%; as for `CCN1/C(=c2/s/c(=C3/C(=O)N(c4ccccc4)N=C3C)n(CC)c2=O)C=Cc2ccccc21`, inactive: 0.579%. The same measure, in the same setting: for `CCOC(=O)N1CCN(C(=O)c2oc3ccc(S(=O)(=O)N(CC)CC)cc3c2C)CC1` the value was inactive: 12.6%; for `Cc1ccccc1CC1(CO)CCCN(Cc2c(C)nn(C)c2Cl)C1` (stereo not drawn), inactive: -5.16%. For the compound `C=CCNC(=O)C1CCN(c2cc(C)nc(-c3ccccc3)n2)CC1`, the “growth rescue (activation)” value was inactive: -6.96%. Still for that read-out and setting: as for `C[C@H](NC(=O)c1ccccc1Cl)C(=O)Nc1ccccc1F`, the figure is inactive: 12.5%; as for `COc1ccc(S(=O)(=O)N2CCN(C/C=C/c3ccccc3)CC2)cc1F`, inactive: -3.31%; as for `COc1ccccc1NC(=O)c1ccc2c(c1)N(CC(=O)NC(C)(C)C)C(=O)C(C)(C)O2`, inactive: 7.44%. The same measure, in the same setting: for `COc1ccc(OC)c(NC(=O)COC(=O)C2CCCCC2)c1` the value was inactive: 11.6%; for `CCOc1ncccc1C(=O)N=c1sccn1C`, inactive: -23.6%; for `Cc1cc(C)cc(NC(=O)C2CCCN(c3ncccn3)C2)c1` (stereo not drawn), inactive: 26.5%. Still for that read-out and setting: as for `O=C(O)c1cn(-c2ccc(N3CCCC3)c(F)c2)c2c(F)c(F)c(F)cc2c1=O`, the figure is inactive: -23.1%.

For the compound `Cc1ccc(C(=O)C2CCN(CC(=O)NC3CCCC3)CC2)cc1`, the “growth rescue (activation)” value was inactive: 6.38%. Consider `CCN(CC)S(=O)(=O)c1ccc(NC(=O)COC(=O)CNS(=O)(=O)/C=C/c2ccccc2)cc1`, for which the “growth rescue (activation)” value is inactive: -1.79%. Turning to `CC(=O)c1c(C)[nH]c(C(=O)OCc2nnc(-c3ccc([N+](=O)[O-])cc3)o2)c1C`, the “growth rescue (activation)” value was inactive: -6.41%. The same measure, in the same setting: as for `Cc1cc(C)cc(OCC(=O)NNC(=O)CN2C(=O)c3ccccc3C2=O)c1`, the figure is inactive: -7.05%; as for `O=C(COc1cc(O)c2c(=O)cc(-c3ccccc3)oc2c1)c1ccccc1`, inactive: 8.58%. Turning to `Cc1ccccc1C(=O)Nc1ccc(O)cc1C(=O)O`, the “growth rescue (activation)” value is inactive: -15.6%. With `COc1cccc(NC(=O)Nc2ccccc2C(N)=O)c1`, the “growth rescue (activation)” value was inactive: -0.807%. Still for that read-out and setting: as for `CCS(=O)(=O)NCc1cn2c(C)csc2n1`, the figure is inactive: -2.96%; as for `Cc1cccc(NC(=O)C2CCN(S(C)(=O)=O)CC2)c1C`, inactive: -5.53%; as for `COCCNC(=O)C(=O)NNC(=O)c1ccccc1OC`, inactive: -5.77%.

Regarding `O=[N+]([O-])c1ccc(S(=O)(=O)N2CCN(Cc3ccco3)CC2)cc1`, the “growth rescue (activation)” value was inactive: -7.68%. Same read-out and setting: for `CCOC(=O)N1CCN(C(=O)c2cc3ccc(OC)cc3[nH]2)CC1` the value was inactive: 8.04%; for `COC(=O)c1ccc(OCCN2CCCCCC2)cc1`, inactive: -6.18%; for `Cc1cc(C)c(C)c(C(=O)C2OC(=O)C(C)(C)C(=O)C2(C)C)c1C` (stereo not drawn), inactive: 22.8%. With `COC(CNC(=O)c1cc(Sc2nnc(C)s2)nc2ccccc12)OC`, the “growth rescue (activation)” value is inactive: -1.71%. Still for that read-out and setting: as for `COC(=O)CSc1nc(C)c(C(=O)Nc2ccccc2C)c(-c2ccc(Cl)cc2)c1C#N`, the figure is inactive: 13.4%. On the same count and under the same terms, as for `O=c1c2ccccc2ncn1-c1ccc([N+](=O)[O-])cc1[N+](=O)[O-]`, the figure is inactive: -4.29%; as for `COc1ccc(CNC(=O)C2CCN(S(=O)(=O)c3cccc4nonc34)CC2)cc1`, inactive: 1.81%; as for `O=C(COC(=O)c1cc2ccccc2oc1=O)Nc1cccc(S(=O)(=O)N2CCCCCC2)c1`, inactive: -9.32%. The same measure, in the same setting: for `Cc1c(Cl)cccc1NC(=S)N1CCCN(Cc2ccc(F)cc2)C1` the value was inactive: 8.94%; for `O=C(Cn1cc[n+](Cc2ccccc2)c1)c1ccc([N+](=O)[O-])cc1`, inactive: 0.209%; for `O=C(NCC(=O)N(Cc1ccc(F)cc1)C(C(=O)NCC1CCCO1)c1ccccc1)c1ccco1` (stereo not drawn), inactive: -6.15%. With `CCC1(C)Cc2c(sc3c2c(=O)n(C)c2nnc(SCCc4ccccc4)n32)CO1` (stereo not drawn), the “growth rescue (activation)” value is inactive: -37.3%. Still for that read-out and setting: as for `CCN1CCN(S(=O)(=O)c2ccc(OC)c(NC(=O)c3ccccc3)c2)CC1`, the figure is inactive: -2.53%; as for `O=C(c1cc(-c2ccccn2)nc2ccccc12)N1CCN(c2ncccn2)CC1`, inactive: -7.88%. Same read-out and setting: as for `CN(CC(=O)Nc1ccc(S(N)(=O)=O)cc1)Cc1ccccc1F`, the figure is inactive: 6.82%.

`Cc1[nH]nc(SCC(=O)N2CCCCCC2)c1[N+](=O)[O-]`: the “growth rescue (activation)” value is inactive: -3.11%. On the same count and under the same terms, as for `C=CCN(c1ccc(C(=O)Nc2ccc3c(c2)OCO3)cc1)S(C)(=O)=O`, the figure is inactive: 4.94%; as for `OC(CNCc1ccccc1Cl)COc1ccc(F)cc1` (stereo not drawn), inactive: 4.16%.
